# Source: the supplement of paper PMC8728848
# Some of the results follow.
# Legend:
# Experiment in all cases: glycan array binding signal (z-score within array); higher = stronger binding
# Details in all cases: glycan notation: IUPAC condensed, linker removed
# [1] = molecular target: Fuc(a1-2)[Gal(a1-3)]Gal(b1-4)[Fuc(a1-3)]GlcNAc(b1-3)GalNAc
# In short: (§1)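 Negative Z-scores can be read as non-binding. The Z-score is calculated within each array and then averaged across arrays of one protein sequence at different concentrations or buffers and across linkers. Arrays, 3228 in all, were curated from the Consortium for Functional Glycomics database and kept only where the protein sequence was available.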
# [2] = molecular target: Fuc(a1-2)[Gal(a1-4)]Gal(b1-4)GlcNAc
# In short: as §1
# [3] = molecular target: Fuc(a1-2)[GalNAc(a1-3)]Gal
# In short: as §1
# [4] = molecular target: Fuc(a1-2)[GalNAc(a1-3)]Gal(b1-3)GalNAc(a1-3)[Fuc(a1-2)]Gal(b1-4)GlcNAc
# In short: as §1
# [5] = molecular target: Fuc(a1-2)[GalNAc(a1-3)]Gal(b1-3)GalNAc(b1-3)Gal(a1-4)Gal(b1-4)Glc
# In short: as §1
# [6] = molecular target: Fuc(a1-2)[GalNAc(a1-3)]Gal(b1-3)GlcNAc
# In short: as §1
# [7] = molecular target: Fuc(a1-2)[GalNAc(a1-3)]Gal(b1-3)GlcNAc(b1-2)Man(a1-3)[Fuc(a1-2)[GalNAc(a1-3)]Gal(b1-3)GlcNAc(b1-2)Man(a1-6)]Man(b1-4)GlcNAc(b1-4)GlcNAc
# In short: as §1
# [8] = molecular target: Fuc(a1-2)[GalNAc(a1-3)]Gal(b1-3)GlcNAc(b1-2)Man(a1-3)[Fuc(a1-2)[GalNAc(a1-3)]Gal(b1-3)GlcNAc(b1-2)Man(a1-6)]Man(b1-4)GlcNAc(b1-4)[Fuc(a1-6)]GlcNAc
# In short: as §1
# [9] = molecular target: Fuc(a1-2)[GalNAc(a1-3)]Gal(b1-3)GlcNAc(b1-3)GalNAc
# In short: as §1
# [10] = molecular target: Fuc(a1-2)[GalNAc(a1-3)]Gal(b1-3)GlcNAc(b1-6)GalNAc
# In short: as §1
# [11] = molecular target: Fuc(a1-2)[GalNAc(a1-3)]Gal(b1-4)Glc
# In short: as §1
# [12] = molecular target: Fuc(a1-2)[GalNAc(a1-3)]Gal(b1-4)GlcNAc
# In short: as §1
# [13] = molecular target: Fuc(a1-2)[GalNAc(a1-3)]Gal(b1-4)GlcNAc(b1-2)Man
# In short: as §1
# [14] = molecular target: Fuc(a1-2)[GalNAc(a1-3)]Gal(b1-4)GlcNAc(b1-2)Man(a1-3)[Fuc(a1-2)[GalNAc(a1-3)]Gal(b1-4)GlcNAc(b1-2)Man(a1-6)]Man(b1-4)GlcNAc(b1-4)GlcNAc
# In short: as §1
# [15] = molecular target: Fuc(a1-2)[GalNAc(a1-3)]Gal(b1-4)GlcNAc(b1-2)Man(a1-3)[Fuc(a1-2)[GalNAc(a1-3)]Gal(b1-4)GlcNAc(b1-2)Man(a1-6)]Man(b1-4)GlcNAc(b1-4)[Fuc(a1-6)]GlcNAc
# In short: as §1
# [16] = molecular target: Fuc(a1-2)[GalNAc(a1-3)]Gal(b1-4)GlcNAc(b1-3)Gal(b1-4)GlcNAc
# In short: as §1
# [17] = molecular target: Fuc(a1-2)[GalNAc(a1-3)]Gal(b1-4)GlcNAc(b1-3)Gal(b1-4)GlcNAc(b1-3)Gal(b1-4)GlcNAc
# In short: as §1
# [18] = molecular target: Fuc(a1-2)[GalNAc(a1-3)]Gal(b1-4)GlcNAc(b1-3)GalNAc
# In short: as §1
# [19] = molecular target: Fuc(a1-2)[GalNAc(a1-3)]Gal(b1-4)GlcNAc(b1-3)[Fuc(a1-2)[GalNAc(a1-3)]Gal(b1-4)GlcNAc(b1-6)]GalNAc
# In short: as §1
# [20] = molecular target: Fuc(a1-2)[GalNAc(a1-3)]Gal(b1-4)GlcNAc(b1-6)GalNAc
# In short: as §1
# [21] = molecular target: Fuc(a1-2)[GalNAc(a1-3)]Gal(b1-4)[Fuc(a1-3)]GlcNAc
# In short: as §1
# [22] = molecular target: Fuc(a1-2)[GalNAc(a1-3)]Gal(b1-4)[Fuc(a1-3)]GlcNAc(b1-3)GalNAc
# In short: as §1
# [23] = molecular target: Fuc(a1-2)[GalNAc(a1-4)]Gal(b1-4)GlcNAc
# In short: as §1
# [24] = molecular target: Fuc(a1-2)[GalNAc(b1-3)]Gal
# In short: as §1
# Fuc(a1-3)GlcNAc = molecular target: Fuc(a1-3)GlcNAc
# In short: as §1
# [25] = molecular target: Fuc(a1-3)[Gal(b1-4)]Glc6S
# In short: as §1
# [26] = molecular target: Fuc(a1-3)[Gal(b1-4)]GlcNAc
# In short: as §1
# [27] = molecular target: Fuc(a1-3)[Gal(b1-4)]GlcNAc(b1-2)Man
# In short: as §1
# [28] = molecular target: Fuc(a1-3)[Gal(b1-4)]GlcNAc(b1-2)Man(a1-3)[Fuc(a1-3)[Gal(b1-4)]GlcNAc(b1-2)Man(a1-6)]Man(b1-4)GlcNAc(b1-4)GlcNAc
# In short: as §1
# [29] = molecular target: Fuc(a1-3)[Gal(b1-4)]GlcNAc(b1-2)Man(a1-3)[Fuc(a1-3)[Gal(b1-4)]GlcNAc(b1-2)Man(a1-6)]Man(b1-4)GlcNAc(b1-4)[Fuc(a1-6)]GlcNAc
# In short: as §1
# [30] = molecular target: Fuc(a1-3)[Gal(b1-4)]GlcNAc(b1-3)Gal(b1-3)[Fuc(a1-4)]GlcNAc
# In short: as §1
# [31] = molecular target: Fuc(a1-3)[Gal(b1-4)]GlcNAc(b1-3)Gal(b1-4)[Fuc(a1-3)]GlcNAc
# In short: as §1
# [32] = molecular target: Fuc(a1-3)[Gal(b1-4)]GlcNAc(b1-3)Gal(b1-4)[Fuc(a1-3)]GlcNAc(b1-3)Gal(b1-4)[Fuc(a1-3)]GlcNAc
# In short: as §1
# [33] = molecular target: Fuc(a1-3)[Gal(b1-4)]GlcNAc(b1-3)GalNAc
# In short: as §1
# [34] = molecular target: Fuc(a1-3)[Gal(b1-4)]GlcNAc(b1-6)GalNAc
# In short: as §1
# [35] = molecular target: Fuc(a1-3)[Gal(b1-4)]GlcNAc(b1-6)[Gal(b1-3)GlcNAc(b1-3)]Gal(b1-4)Glc
# In short: as §1
# [36] = molecular target: Fuc(a1-3)[Gal(b1-4)]GlcNAc6S
# In short: as §1
# [37] = molecular target: Fuc(a1-3)[Gal3S(b1-4)]Glc
# In short: as §1
binder,measurement,setting,value
"Siglec-E (Mus musculus), Q91Y57 (protein) MLLLLLLLLLWGIKGVEGQNPQEVFTLNVERKVVVQEGLCVLVPCNFSYLKKRLTDWTDSDPVHGFWYREGTDRRKDSIVATNNPIRKAVKETRNRFFLLGDPWRNDCSLNIREIRKKDAGLYFFRLERGKTKYNYMWDKMTLVVTALTNTPQILLPETLEAGHPSNLTCSVPWDCGWTAPPIFSWTGTSVSFLSTNTTGSSVLTITPQPQDHGTNLTCQVTLPGTNVSTRMTTRLNVSYAPKNLTVTIYQGADSVSTILKNGSSLPISEGQSLRLICSTDSYPPANLSWSWDNLTLCPSKLSKPGLLELFPVHLKHGGVYTCQAQHALGSQHISLSLSPQSSATLSEMMMGTFVGSGVTALLFLSVCILLLAVRSYRRKPARPAVVAPHPDALKVSVSQNPLVESQADDSSEPLPSILEAAPSSTEEEIHYATLSFHEMKPMNLWGQQDTTTEYSEIKFPQRTAWP",glycan array binding signal (z-score),[1],-0.176
same,glycan array binding signal (z-score),[2],0.07
same,glycan array binding signal (z-score),[3],-0.463
same,glycan array binding signal (z-score),[4],-0.375
same,glycan array binding signal (z-score),[5],-0.363
same,glycan array binding signal (z-score),[6],-0.1
same,glycan array binding signal (z-score),[7],-0.51
same,glycan array binding signal (z-score),[8],0.323
same,glycan array binding signal (z-score),[9],0.555
same,glycan array binding signal (z-score),[10],-0.514
same,glycan array binding signal (z-score),[11],-0.375
same,glycan array binding signal (z-score),[12],-0.437
same,glycan array binding signal (z-score),[13],-0.28
same,glycan array binding signal (z-score),[14],-0.494
same,glycan array binding signal (z-score),[15],0.827
same,glycan array binding signal (z-score),[16],-0.506
same,glycan array binding signal (z-score),[17],-0.473
same,glycan array binding signal (z-score),[18],0.306
same,glycan array binding signal (z-score),[19],0.503
same,glycan array binding signal (z-score),[20],-0.465
same,glycan array binding signal (z-score),[21],1.24
same,glycan array binding signal (z-score),[22],-0.209
same,glycan array binding signal (z-score),[23],-0.49
same,glycan array binding signal (z-score),[24],-0.581
same,glycan array binding signal (z-score),Fuc(a1-3)GlcNAc,-0.426
same,glycan array binding signal (z-score),[25],0.093
same,glycan array binding signal (z-score),[26],0.419
same,glycan array binding signal (z-score),[27],-0.35
same,glycan array binding signal (z-score),[28],-0.551
same,glycan array binding signal (z-score),[29],-0.338
same,glycan array binding signal (z-score),[30],-0.496
same,glycan array binding signal (z-score),[31],0.353
same,glycan array binding signal (z-score),[32],-0.476
same,glycan array binding signal (z-score),[33],0.563
same,glycan array binding signal (z-score),[34],-0.184
same,glycan array binding signal (z-score),[35],0.034
same,glycan array binding signal (z-score),[36],0.65
same,glycan array binding signal (z-score),[37],-0.406
